Out of some 390,000 compounds screened, about 4,000 (1%) were called active. The inconclusive results got no clear call from the source; some entries with a clear call stand among them for comparison. The call rests on the fitted dose curve; in most records, active means well fitted inhibition curve with a large enough effect; inconclusive means small, poorly fitted or top-dose-only effect; inactive means no such curve, though single readings can be large or run the other way. Potencies beside an inconclusive call are fits to weak or partial responses and may not hold up.
What follows are molecules tested against Thioredoxin reductase 1, cytoplasmic (Rattus norvegicus) (UniProt O89049) (assay: qHTS Assay for Inhibitors of Mammalian Selenoprotein Thioredoxin Reductase 1 (TrxR1): qHTS). Conditions: recombinant rTrxR1, NADPH fluorescence consumption, selenite substrate; series mostly up to 114 µM.
Outline: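 Rat TrxR1 (90 nM in the dispensed reagent) was pre-reduced with 400 uM NADPH for 5 min at room temperature, then incubated with compound for 15 min. After 400 uM selenite was added, NADPH fluorescence (Ex 340/Em 450 nm) was followed for 8 min.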
Further: nearly all actives have a fitted effect of over 65% in size.
Potency means the concentration at half of the fitted maximal effect; tags describe the fitted curve by direction and shape.

UniProt O89049, sequence (O89049 whole entry, looked up): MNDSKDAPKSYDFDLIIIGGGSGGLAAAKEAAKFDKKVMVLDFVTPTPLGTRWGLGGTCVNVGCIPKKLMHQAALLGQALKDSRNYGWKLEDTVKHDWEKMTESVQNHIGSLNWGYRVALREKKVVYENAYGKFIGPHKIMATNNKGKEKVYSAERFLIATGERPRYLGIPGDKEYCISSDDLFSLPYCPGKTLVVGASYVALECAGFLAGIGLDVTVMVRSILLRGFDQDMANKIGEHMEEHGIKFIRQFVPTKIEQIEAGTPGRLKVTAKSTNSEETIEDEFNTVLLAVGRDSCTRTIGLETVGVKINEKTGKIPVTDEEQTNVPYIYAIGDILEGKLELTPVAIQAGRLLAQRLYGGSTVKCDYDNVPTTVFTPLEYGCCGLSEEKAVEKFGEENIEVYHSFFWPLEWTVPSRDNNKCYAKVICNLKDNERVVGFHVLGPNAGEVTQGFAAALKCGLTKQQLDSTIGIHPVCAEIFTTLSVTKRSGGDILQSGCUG

| SMILES | Potency |
| --- | --- |
| CN(C)CCCNC(=O)c1cc(C(=O)C2CCCCC2)c[nH]1 | inactive |
| COc1ccc(OC)c2[nH]c(=O)c(CCNS(=O)(=O)c3ccccc3)cc12 | inconclusive: 89.1 µM [inhibitor, single point] |
| O=C(Nc1cc(Cl)ccc1-n1cncn1)c1ccc([N+](=O)[O-])s1 | inconclusive: 79.4 µM [inhibitor, single point] |
| CC(=O)c1c(C)[nH]c(C(=O)OCc2ccc(F)cc2Cl)c1C | inactive |
| COCCN1CCc2[nH]c(=S)[nH]c(=O)c2C1 | inconclusive: 22.4 µM [inhibitor, partial curve] |
| O=C1N(Cc2cccc(Cl)c2)C[C@@H]2C[C@@H](c3cccn3-c3ccccn3)N3CCC[C@@]123 | inconclusive: 50.1 µM [inhibitor, partial curve, poor fit] |
| Cc1ccc(C)c(-n2c(CNC(=O)c3ccco3)nnc2SCC(=O)Nc2nccs2)c1 | inconclusive: 39.8 µM [inhibitor, partial curve, poor fit] |
| CC(C)Oc1cccc(C(=O)NC(=S)Nc2ccc(N3CCN(C)CC3)cc2)c1 | inconclusive: 50.1 µM [inhibitor, partial curve] |
| Cc1nc2c(=O)[nH]c(=S)n(C)c2nc1C | inconclusive: 39.8 µM [inhibitor, partial curve] |
| Cc1cc(C)c2c(c1)[C@@H]1C=CC[C@@H]1[C@H](c1ccc(S(=O)(=O)N3CCOCC3)cc1)N2 | active: 2.82 µM |
| COc1ccc(NC(=O)CSCc2cc(=O)n3c(C)csc3n2)cc1 | inconclusive: 89.1 µM [inhibitor, partial curve, poor fit] |
| COc1cc(C(=O)NCc2cccc(Cl)c2)ccc1OCC(=O)N1CCOCC1 | inconclusive: 0.794 µM [inhibitor, full curve, poor fit] |
| Cc1cc2nn(-c3ccc(F)cc3)nc2cc1NC(=O)c1ccc(OC(C)C)cc1 | active: 89.1 µM |
| COc1cc(C2c3cc4c(cc3OC(NNC(N)=S)C2C)OCO4)cc(OC)c1OC (configuration not stated) | inconclusive: 12.6 µM [inhibitor, partial curve] |
| CCn1c(CNC(=O)c2ccc(OC)cc2)nnc1SCC(=O)Nc1cccc(C)c1C | inactive |
| Cc1ccc(C2=NC(C(F)(F)F)(C(F)(F)F)c3c(n(-c4ccc(F)cc4)c(=O)[nH]c3=O)N2)cc1 | inconclusive: 89.1 µM [inhibitor, single point] |
| O=C(CCl)N(CCc1ccccc1)CCc1ccccc1 | active: 11.2 µM |
| CCOc1ccc(C(=O)CC(NCc2cccs2)C(=O)O)cc1 (configuration not stated) | inconclusive: 14.1 µM [inhibitor, partial curve] |
| O=C(N/N=C/c1nn(-c2ccccc2)cc1-c1ccccc1)c1ccncc1 | inconclusive: 79.4 µM [inhibitor, single point] |
| C=CCN(C(=O)CCS(=O)(=O)c1cccc2nsnc12)c1ccccc1 | inconclusive: 50.1 µM [inhibitor, partial curve, poor fit] |
| Cc1c(NC(=O)OCCNC(=O)Nc2ccccc2)sc(=S)n1C | inactive |

| SMILES | Potency |
| --- | --- |
| CC(C)CC(C(=O)O)N1C(=O)C2C3CC(C2C1=O)C1C(c2ccccc2)c2sc(=O)[nH]c2SC31 (configuration not stated) | inactive |
| COc1ccc(C(C(=O)NC2CCCC2)N(Cc2cccnc2)C(=O)Cc2cccs2)c(OC)c1 (configuration not stated) | inactive |
| CN1Cc2sc(NC(=S)NC(=O)c3ccccc3)c(C#N)c2CC1(C)C | inconclusive: 31.6 µM [inhibitor, single point] |
| CCc1ccc2occ(CC(=O)Nc3c(C(=O)Nc4ccc(OC)cc4)oc4ccccc34)c2c1 | inconclusive: 89.1 µM [inhibitor, single point] |
| CC1(C)CC(=O)C=C(Nc2ccccn2)C1 | inconclusive: 89.1 µM [inhibitor, partial curve, poor fit] |
| Cc1cc(/C([O-])=C(/C(=S)Nc2ccc(F)cc2)[n+]2ccccc2)c(C)n1Cc1ccccc1Cl | inconclusive: 63.1 µM [inhibitor, single point] |
| O=C(C=Cc1ccccc1)CC(c1ccccc1)N1CCOCC1 (configuration not stated) | inconclusive: 10 µM [inhibitor, full curve] |
| CCn1nc(C)cc1C(=O)Sc1cccc(Cl)c1 | inconclusive: 25.1 µM [inhibitor, partial curve] |
| Cc1cc(C)n2nc(SCC(=O)NCc3ccco3)nc2n1 | inconclusive: 50.1 µM [inhibitor, partial curve] |
| COc1ccc(C2C3=C(CC(C)(C)CC3=O)Oc3ncn(Cc4ccco4)c(=N)c32)cc1 (configuration not stated) | inconclusive: 22.4 µM [inhibitor, full curve] |
| OC(CC#CCN1CCCC1)(c1ccccc1)c1ccccc1 | inactive |
| Cc1occc1-c1nnc(SCC(=O)NCc2ccco2)n1CC(C)C | inconclusive: 22.4 µM [inhibitor, full curve] |
| CCOc1cccc(C2C(C#N)=C(N)Oc3cc(C)[nH]c(=O)c32)c1OCC (configuration not stated) | inactive |
| CCc1ccccc1S(=O)(=O)Cc1ccc(C(=O)NCc2cccs2)o1 | inconclusive: 39.8 µM [inhibitor, partial curve, poor fit] |
| CCOC(=O)C(=Cc1ccc(OCc2ccc([N+](=O)[O-])cc2)c(OC)c1)C(=O)OCC | inconclusive: 1.78 µM [inhibitor, partial curve, poor fit] |
| Cc1coc2cc3oc(=O)c(CC(=O)NCc4ccc(F)cc4)c(C)c3cc12 | inactive |
| Cc1sc(NC(=O)c2ccco2)c(C(c2cccnc2)N2CCN(C)CC2)c1C (configuration not stated) | inconclusive: 7.08 µM [inhibitor, partial curve] |
| O=C(Nc1cc(F)ccc1F)N1CCN(c2ccnc3cc(Cl)ccc23)CC1 | inactive |
| O=C(O)c1nn(-c2ccccc2)c(-c2ccccc2)c1C(=O)c1ccccc1 | inconclusive: 39.8 µM [inhibitor, partial curve, poor fit] |
| COc1ccc(NC(=O)CC2C(=O)N(C)C(=S)N2Cc2ccco2)cc1 (configuration not stated) | inconclusive: 79.4 µM [inhibitor, single point] |
| S=c1[nH]nc2c3c4c(sc3ncn12)CCCC4 | inconclusive: 8.91 µM [inhibitor, partial curve, poor fit] |
